Assay results as given in a collection of fitness landscapes (doi:10.1126/science.1257360).
The list shows a part of the results.

B1: PhoQ; a variant is named by its letters at X, in order, P23837 (parent)
chain: MKKLLRLFFPLSLRVRFLLATAAVVLVLSLAYGMVALIGYSVSFDKTTFRLLRGESNLFYTLAKWENNKLHVELPENIDKQSPTMTLIYDENGQLLWAQRDVPWLMKMIQPDWLKSNGFHEIEADVNDTSLLLSGDHSIQQQLQEVREDDDDAEMTHSVAVNVYPATSRMPKLTIVVVDTIPVELKSSYMVWSWFIYVLSANLLLVIPLLWVAAWWSLRPIEALAKEVRELEEHNRELLNPATTRELTSLVRNLNRLLKSERERYDKYRTTLTDLTHSLKTPLXXLQXXLRSLRSEKMSVSDAEPVMLEQISRISQQIGYYLHRASMRGGTLLSRELHPVAPLLDNLTSALNKVYQRKGVNISLDISPEISFVGEQNDFVEVMGNVLDNACKYCLEFVEISARQTDEHLYIVVEDDGPGIPLSKREVIFDRGQRVDTLRPGQGVGLAVAREITEQYEGKIVAGESMLGGARMEVIFGRQHSAPKDE

Variants of: B1
Test: enrichment ratio after two sorts for PhoP signalling (ratio (wild type AVST 3.29)); higher = more functional
Conditions: with PhoP (E. coli)

| Variant | enrichment ratio |
| --- | --- |
| VDCL | ≤ 0.25 |
| KKMA | ≤ 0.25 |
| PMHW | ≤ 0.25 |
| ITYE | ≤ 0.25 |
| RFYR | ≤ 0.25 |
| VISI | 2.09 |
| FQEP | ≤ 0.25 |
| VIMT | ≤ 0.25 |
| QMGF | 6.84 |
| QEPY | ≤ 0.25 |
| MMYP | ≤ 0.25 |
| WCPA | ≤ 0.25 |
| ECKT | ≤ 0.25 |
| SLYW | ≤ 0.25 |
| FHQI | ≤ 0.25 |
| RQWI | ≤ 0.25 |
| HLTN | ≤ 0.25 |
| DTEH | ≤ 0.25 |
| DPNQ | ≤ 0.25 |
| EAMI | ≤ 0.25 |
| HYPT | ≤ 0.25 |
| MPRW | ≤ 0.25 |
| RYSR | ≤ 0.25 |
| AGTN | ≤ 0.25 |
| GTDG | ≤ 0.25 |
| KPNT | ≤ 0.25 |

| Variant | enrichment ratio |
| --- | --- |
| VVIF | ≤ 0.25 |
| DSDQ | ≤ 0.25 |
| DQQI | ≤ 0.25 |
| PATM | ≤ 0.25 |
| ASFQ | 1.8 |
| NACS | ≤ 0.25 |
| GTFD | ≤ 0.25 |
| LFRL | ≤ 0.25 |
| ECHR | ≤ 0.25 |
| QKAT | ≤ 0.25 |
| DEKR | ≤ 0.25 |
| YGYD | ≤ 0.25 |
| NDTC | ≤ 0.25 |
| PVGD | ≤ 0.25 |
| QPGC | ≤ 0.25 |
| PADD | ≤ 0.25 |
| PPGT | ≤ 0.25 |
| GTHF | ≤ 0.25 |
| RIWS | ≤ 0.25 |
| DRHG | ≤ 0.25 |
| YRHI | ≤ 0.25 |
| GPCK | ≤ 0.25 |
| AWEF | ≤ 0.25 |
| LADC | ≤ 0.25 |
| QDPY | ≤ 0.25 |
| ICTA | ≤ 0.25 |

| Variant | enrichment ratio |
| --- | --- |
| QVTC | ≤ 0.25 |
| SKYT | ≤ 0.25 |
| MLAD | ≤ 0.25 |
| LSPD | ≤ 0.25 |
| ADFT | ≤ 0.25 |
| RDPT | ≤ 0.25 |
| VPLH | ≤ 0.25 |
| TART | ≤ 0.25 |
| AVPG | ≤ 0.25 |
| PWVF | ≤ 0.25 |
| LDAM | ≤ 0.25 |
| PISH | ≤ 0.25 |
| FQKQ | ≤ 0.25 |
| DSPR | ≤ 0.25 |
| AHCG | 15.3 |
| LWPW | ≤ 0.25 |
| ETVH | ≤ 0.25 |
| ATKG | ≤ 0.25 |
| LGID | ≤ 0.25 |
| MNSG | ≤ 0.25 |
| THRN | ≤ 0.25 |
| NVPV | ≤ 0.25 |
| HSWK | ≤ 0.25 |
| PPIK | ≤ 0.25 |
| FDVS | ≤ 0.25 |
| QMRR | ≤ 0.25 |

| Variant | enrichment ratio |
| --- | --- |
| IVTG | ≤ 0.25 |
| MITD | ≤ 0.25 |
| YQFN | ≤ 0.25 |
| WFDE | ≤ 0.25 |
| QVIC | ≤ 0.25 |
| TSYR | 0.351 |
| AIIN | 4.99 |
| EGKC | ≤ 0.25 |
| HNGH | ≤ 0.25 |
| LSDH | ≤ 0.25 |
| PPEA | ≤ 0.25 |
| RRFG | ≤ 0.25 |
| RKLP | ≤ 0.25 |
| SAKS | ≤ 0.25 |
| FQKY | ≤ 0.25 |
| IHFF | ≤ 0.25 |
| AQWI | ≤ 0.25 |
| YKNH | ≤ 0.25 |
| NWDK | ≤ 0.25 |
| SDQY | ≤ 0.25 |
| PGLF | ≤ 0.25 |
| RSRQ | ≤ 0.25 |
| WRVQ | ≤ 0.25 |
| QDSH | ≤ 0.25 |
| WKMA | ≤ 0.25 |
| RMGD | ≤ 0.25 |

| Variant | enrichment ratio |
| --- | --- |
| WDYV | ≤ 0.25 |
| TAQS | 14.2 |
| IQGV | ≤ 0.25 |
| QGYE | 4.13 |
| SKEQ | ≤ 0.25 |
| VDMV | ≤ 0.25 |
| IFDA | ≤ 0.25 |
| NYHT | ≤ 0.25 |
| QNTE | ≤ 0.25 |
| FKFH | ≤ 0.25 |
| TGCS | 13 |
| PFGS | ≤ 0.25 |
| HIAL | ≤ 0.25 |
| FMEK | ≤ 0.25 |
| SPVI | ≤ 0.25 |
| VLTA | ≤ 0.25 |
| NFNY | ≤ 0.25 |
| QRFH | ≤ 0.25 |
| ELTW | ≤ 0.25 |
| TKRC | ≤ 0.25 |
| FPYD | ≤ 0.25 |
| QLCT | ≤ 0.25 |
| HWKW | ≤ 0.25 |
| WQMV | ≤ 0.25 |
| GNTW | ≤ 0.25 |
| NFRD | ≤ 0.25 |

| Variant | enrichment ratio |
| --- | --- |
| LPHK | ≤ 0.25 |
| VSMT | ≤ 0.25 |
| VIID | ≤ 0.25 |
| MSAE | ≤ 0.25 |
| SCIK | 1.98 |
| RMHP | ≤ 0.25 |
| WDTH | ≤ 0.25 |
| DPKF | ≤ 0.25 |
| VIRN | ≤ 0.25 |
| LMYF | ≤ 0.25 |
| HMHY | ≤ 0.25 |
| QARP | ≤ 0.25 |
| NHYR | ≤ 0.25 |
| GAMW | ≤ 0.25 |
| GMYV | ≤ 0.25 |
| NQPR | ≤ 0.25 |
| MELG | 22.3 |
| AMDR | ≤ 0.25 |
| GKIV | 4.89 |
| LYQW | ≤ 0.25 |
| EDSG | ≤ 0.25 |
| WYPL | ≤ 0.25 |
| HWGM | ≤ 0.25 |
